According to PubChem BioAssay AID504332 (National Center for Advancing Translational Sciences (NCATS), 2011):
About 31,000 (8.9%) of roughly 350,000 compounds were called active. This list was built around the results that the source calls inconclusive (neither active nor inactive); the mix of calls is not that of the screen. The call rests on the fitted dose curve; in most records, active means well fitted inhibition curve with a large enough effect; inconclusive means small, poorly fitted or top-dose-only effect; inactive means no such curve, though single readings can be large or run the other way. Where the call is inconclusive, the potency comes from a doubtful curve fit.

biological target: Histone-lysine N-methyltransferase EHMT2 (Homo sapiens) (UniProt Q96KQ7); assay: qHTS Assay for Inhibitors of Histone Lysine Methyltransferase G9a; details: G9a H3K9 monomethylation, AlphaScreen, 2 h; activity, negative = inhibition: at 59 µM (top of the series) unless noted; further: nearly all actives have a fitted effect of over 75% in size
Sequence of UniProt Q96KQ7 (Q96KQ7 whole entry, looked up): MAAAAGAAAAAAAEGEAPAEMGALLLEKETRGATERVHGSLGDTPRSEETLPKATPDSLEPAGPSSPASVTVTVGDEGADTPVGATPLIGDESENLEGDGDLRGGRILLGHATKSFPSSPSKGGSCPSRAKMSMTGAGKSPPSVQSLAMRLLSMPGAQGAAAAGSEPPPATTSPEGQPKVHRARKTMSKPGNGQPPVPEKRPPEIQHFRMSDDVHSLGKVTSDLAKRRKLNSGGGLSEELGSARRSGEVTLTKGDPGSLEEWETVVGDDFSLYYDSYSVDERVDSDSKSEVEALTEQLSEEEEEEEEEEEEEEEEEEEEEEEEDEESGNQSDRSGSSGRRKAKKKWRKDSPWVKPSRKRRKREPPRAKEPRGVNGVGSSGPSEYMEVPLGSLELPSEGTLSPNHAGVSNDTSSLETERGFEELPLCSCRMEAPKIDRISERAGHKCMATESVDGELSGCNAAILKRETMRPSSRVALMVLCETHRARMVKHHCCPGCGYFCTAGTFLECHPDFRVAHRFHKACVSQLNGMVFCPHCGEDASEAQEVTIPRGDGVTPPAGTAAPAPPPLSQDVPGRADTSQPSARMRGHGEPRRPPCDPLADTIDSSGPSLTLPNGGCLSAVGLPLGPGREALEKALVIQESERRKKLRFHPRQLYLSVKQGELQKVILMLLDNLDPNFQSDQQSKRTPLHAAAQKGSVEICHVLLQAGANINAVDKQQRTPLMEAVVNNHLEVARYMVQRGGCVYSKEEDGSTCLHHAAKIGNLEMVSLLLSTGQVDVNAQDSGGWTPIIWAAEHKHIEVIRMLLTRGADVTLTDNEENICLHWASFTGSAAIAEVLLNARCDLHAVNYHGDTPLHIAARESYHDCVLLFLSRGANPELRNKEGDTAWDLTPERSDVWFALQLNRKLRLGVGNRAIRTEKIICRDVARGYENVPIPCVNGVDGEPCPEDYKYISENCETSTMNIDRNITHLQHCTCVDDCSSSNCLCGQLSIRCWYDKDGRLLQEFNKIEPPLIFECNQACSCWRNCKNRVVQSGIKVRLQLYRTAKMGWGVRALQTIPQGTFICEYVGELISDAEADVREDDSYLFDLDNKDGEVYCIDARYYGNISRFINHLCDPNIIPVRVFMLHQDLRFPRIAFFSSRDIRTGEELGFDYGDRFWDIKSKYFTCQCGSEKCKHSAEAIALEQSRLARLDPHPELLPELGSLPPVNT
Procedure, shortened: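 AlphaScreen detection with an anti-monomethyl H3K9 antibody quantified product after a 2 h room-temperature reaction containing 500 nM biotinylated H3K9 peptide, 20 µM SAM and 20 nM enzyme, which had been preincubated 15 min with compound.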
On the % scale 0 is the no-effect control and ±100 the full control effect; potency means the concentration at half of the fitted maximal effect; tags describe the fitted curve by direction and shape.

Row | Structure (SMILES) | activity, negative = inhibition | Potency
1 | COc1ccc(C(C(=O)NC(C)(C)C)N(CCc2ccccc2)C(=O)CCC(=O)Nc2cc(C)on2)cc1 (stereo unspecified) | inactive: -5.99% [at 102 µM] | –
2 | CC(=O)N1C(=O)CC(C)N(C(C)=O)c2ccc([N+](=O)[O-])cc21 (stereo unspecified) | – | active: 20 µM
3 | Cc1cc(/C=C(\C#N)c2nnc(N3CCOCC3)n2-c2ccccc2)c(C)n1-c1ccccc1 | – | inconclusive: 17.8 µM [inhibitor, single point]
4 | Cc1ccc(S(=O)(=O)N(C)C)cc1NC(=S)Nc1ccc2[nH]c(=O)[nH]c2c1 | – | inconclusive: 50.1 µM [inhibitor, partial curve, poor fit]
5 | Cc1nc(SCC(=O)Nc2c(C)n(C)n(-c3ccccc3)c2=O)c(C#N)c(C)c1C | inactive: 18.6% [at 12.7 µM] | –
6 | O=C(c1cc(C(F)(F)F)cc(C(F)(F)F)c1)N1CCC2(CCCN(Cc3nccs3)C2)CC1 | inactive: -0.619% [at 12.7 µM] | –
7 | Cc1cnc(NC(=O)c2ccncc2)s1 | – | active: 50.1 µM
8 | CCN(CC)CCN1C(=O)C(=O)/C(=C(/O)c2ccc(OC(C)C)cc2)C1c1ccncc1 (stereo unspecified) | – | inconclusive: 14.1 µM [inhibitor, partial curve, poor fit]
9 | CCc1ccc(NC(=O)N(Cc2ccc(C)cc2)Cc2cccn2-c2nnc(N3CCCC3=O)s2)cc1 | inactive: -10.6% | –
10 | CS(=O)(=O)c1nc(-c2cccs2)cc(C(F)(F)F)n1 | – | inconclusive: 28.2 µM [inhibitor, single point]
11 | COC(=O)CCCC(=O)NC(C)c1cnn(-c2ccccc2C)c1C (stereo unspecified) | inactive: -2.94% [at 102 µM] | –
12 | Cn1c(SCC(=O)N2CCCCCC2)nnc1-c1ccco1 | – | inconclusive: 7.08 µM [inhibitor, partial curve, poor fit]
13 | C=CCN(c1ccccc1)S(=O)(=O)c1cccc(C(=O)Nc2ncccc2O)c1 | – | inconclusive: 63.1 µM [inhibitor, partial curve, poor fit]
14 | COCc1nnc(NS(=O)(=O)c2ccc([N+](=O)[O-])cc2)s1 | – | inconclusive: 3.55 µM [inhibitor, partial curve, poor fit]
15 | O=C(CSc1nnc(COc2ccc(Cl)cc2)o1)N1CCN(c2ccccc2)CC1 | – | inconclusive: 39.8 µM [inhibitor, full curve]
16 | COc1cccc(CNC(=O)C(NS(=O)(=O)c2ccc3nc(C)sc3c2)C(C)C)c1 (stereo unspecified) | inactive: 5.41% | –
17 | COCC1OS(=O)(=O)NC(CC(=O)SC(C)(C)C)C1C (stereo unspecified) | – | inconclusive: 56.2 µM [inhibitor, partial curve, poor fit]
18 | COc1ccc(S(=O)(=O)N2CCN(C(=O)c3cc4c(s3)CCCC4)CC2)cc1 | inactive: 5.09% [at 12.7 µM] | –
19 | O=C(N=C1SC2CS(=O)(=O)CC2N1c1ccc(F)c(Cl)c1)C1CCCO1 (stereo unspecified) | inactive: -11.3% [at 102 µM] | –
20 | Cc1ccc(NC(=O)N2CCC(CN3CCC(C)CC3)CC2)cc1F | inactive: -19.7% | –
21 | CCOC(=O)c1ccc(NC(=O)c2cc(=O)c3cc(CC)ccc3o2)cc1 | inactive: 2.05% | –
22 | CC1CN(C(=S)NC(=O)c2ccc(Cl)cc2)CC(C)O1 (stereo unspecified) | – | active: 44.7 µM
23 | Cc1ccc2nc(CSc3nnc(NC(=O)COc4ccccc4)s3)cc(=O)n2c1 | inactive: -1.08% | –
24 | CCCCc1ccc(NC(=O)COc2cccc3c(=O)n(C)ccc23)cc1 | inactive: -5.69% | –

Row | Structure (SMILES) | activity, negative = inhibition | Potency
25 | Cc1ccc(S(=O)(=O)/N=C2/NC(=O)/C(=C/c3cc([N+](=O)[O-])ccc3O)S2)cc1 | – | active: 11.2 µM
26 | CCN1CCN(CCC(=O)Nc2cc(OC)cc(OC)c2)CC1 | – | inconclusive: 28.2 µM [inhibitor, partial curve, poor fit]
27 | Cc1ccccc1CN1c2ccccc2-c2nc(SCC(=O)NCCc3ccccc3)ncc2S1(=O)=O | inactive: 2.2% | –
28 | CCNC(=S)Nn1cnc2ccccc21 | – | inconclusive: 70.8 µM [inhibitor, partial curve]
29 | COc1cc(OC)cc(C(=O)N[C@H](C(=O)Nc2ccccc2N2CCOCC2)C(C)C)c1 | inactive: 5.11% | –
30 | O=C(c1ccco1)N1CCN(CCCCOc2cccc3ccccc23)CC1 | – | active: 44.7 µM
31 | Cc1nn(-c2ccccc2)c(N2CCCC2)c1/C=N/NC(=S)Nc1ccccc1F | – | inconclusive: 39.8 µM [inhibitor, single point]
32 | COc1ccc(C(=O)NCC(c2cccnc2)N2CCN(c3ccccc3OC)CC2)cc1OC (stereo unspecified) | – | inconclusive: 50.1 µM [inhibitor, partial curve, poor fit]
33 | O=C(Nc1cccs1)Nc1ccccc1Cl | – | inconclusive: 89.1 µM [inhibitor, single point]
34 | N=c1c2c(-c3ccccc3)c(-c3ccccc3)n(Cc3ccco3)c2ncn1Cc1ccco1 | inconclusive: -91.7% [inhibitor] | –
35 | C[N+](C)=C1SCC(C)(/C=N/O)S1 (stereo unspecified) | inactive: 16.5% [at 102 µM] | –
36 | COc1ccc2oc(-c3ccccc3)c(C(N)=O)c2c1 | – | inconclusive: 31.6 µM [inhibitor, single point]
37 | Cc1ccc(C(CC(=O)Nc2cc(C)cc(C)c2)N2Cc3ccccc3C2=O)cc1 (stereo unspecified) | – | inconclusive: 0.794 µM [inhibitor, partial curve, poor fit]
38 | O=C(O)Cc1ccc(C(=O)c2ccc(Cl)cc2)s1 | – | inconclusive: 22.4 µM [inhibitor, single point]
39 | N/C(=N\OC(=O)CCCOc1ccccc1)c1ccccn1 | – | inconclusive: 31.6 µM [inhibitor, partial curve]
40 | C=CCn1c(CSCc2ccccc2)nnc1SCC(=O)N1CCN(c2ccccc2)CC1 | – | active: 25.1 µM
41 | CCCn1nnc(NC(=O)c2cc(Br)cc(Br)c2OC)n1 | – | inconclusive: 89.1 µM [inhibitor, single point]
42 | COc1ccc(C)cc1S(=O)(=O)N(C)CC(=O)NCc1ccco1 | – | inconclusive: 31.6 µM [inhibitor, single point]
43 | COc1ccccc1-n1cc(-c2ccc(Cl)cc2)[nH]c1=O | – | active: 56.2 µM
44 | COc1ccc(C2c3c(oc4ccc(C)cc4c3=O)C(=O)N2c2cc(C)ccn2)cc1OC (stereo unspecified) | inconclusive: -51.3% [inhibitor] | –
45 | Cc1cccc(-c2nc(SCC(=O)Nc3ccc4c(c3)OCCO4)c(-c3ccccc3)[nH]2)c1 | – | inconclusive: 0.631 µM [inhibitor, full curve, poor fit]
46 | CN(C)c1nc(C(=O)NN)nc(N(C)C)n1 | inactive: 33.3% [at 12.7 µM] | –
47 | COc1ccc(CNC(=O)Cc2csc3nc(-c4ccc(C)cc4)cn23)cc1 | inactive: -7.05% | –
48 | Cc1ccc(Cl)cc1N1CCN(C(=O)C2CCN(Cc3nc(-c4cccc(Cl)c4)oc3C)CC2)CC1 | – | inconclusive: 8.91 µM [inhibitor, partial curve]

Row | Structure (SMILES) | activity, negative = inhibition | Potency
49 | COc1ccc(N(C(=O)CS(=O)CC(=O)Nc2ccc(F)cc2)C(C(=O)NC2CCCCC2)c2cccs2)cc1 (stereo unspecified) | inactive: 15.3% [at 102 µM] | –
50 | O=S(=O)(Nc1ccc(-n2cnnn2)cc1)c1ccccc1F | – | inconclusive: 1.58 µM [inhibitor, full curve, poor fit]
51 | CC1=C([N+](=O)[O-])C(c2ccccc2)C2=C(N1)c1ccccc1C2=O (stereo unspecified) | – | active: 10 µM
52 | O=C(CCOc1cccc(Br)c1)NNC(=O)COc1ccc(F)cc1 | inactive: 4.58% [at 102 µM] | –
53 | CCn1c(C(=O)NC2CCC(C)CC2)cc2sccc21 (stereo unspecified) | inactive: 17.4% [at 102 µM] | –
54 | CCCCN(C(=O)c1ccc(Br)o1)C1CCS(=O)(=O)C1 (stereo unspecified) | – | active: 50.1 µM
55 | CN(C)C(=O)c1ccc(NC(=O)c2cncc(Br)c2)cc1 | – | inconclusive: 3.16 µM [inhibitor, single point]
56 | Cc1ccc(C(=O)CC2(O)C(=O)N(CN3CCOCC3)c3ccccc32)cc1 (stereo unspecified) | – | inconclusive: 2.24 µM [inhibitor, partial curve, poor fit]
57 | CCOc1ccc(CCNC(=O)COC(=O)Cn2cnc3c2c(=O)n(C)c(=O)n3C)cc1OCC | – | inconclusive: 50.1 µM [inhibitor, partial curve, poor fit]
58 | O=C(CNCCc1ccc(Cl)cc1)Nc1ccc(C(=O)N2CCCCC2)cc1 | – | active: 7.94 µM
59 | Cc1nn(C)cc1C(=O)NNC(=S)Nc1ccccc1 | – | inconclusive: 79.4 µM [inhibitor, partial curve, poor fit]
60 | Cc1ccccc1NC(=O)CSc1nc(N)c2c3c(sc2n1)CSC(C)(C)C3 | – | inconclusive: 28.2 µM [inhibitor, single point]
61 | Cn1nc(Oc2ncc(C(F)(F)F)cc2Cl)cc1C(F)(F)F | inactive: -0.44% [at 102 µM] | –
62 | COc1cc(C(=O)Nc2ccc(S(=O)(=O)Nc3onc(C)c3C)cc2)cc(OC)c1OC | – | inconclusive: 100 µM [inhibitor, partial curve, poor fit]
63 | CC(C)(C)c1ccc(C(=O)N/C(=C\c2ccco2)C(=O)O)cc1 | – | inconclusive: 50.1 µM [inhibitor, partial curve, poor fit]
64 | COc1ccc(S(=O)(=O)N2CCC(C(=O)N[C@@H](C)C(=O)NCc3cccc(OC)c3)CC2)cc1 | inactive: 43.3% [at 102 µM] | –
65 | COc1cccc(C(=O)Nc2cc(Cl)c(O)c(Cl)c2)c1 | – | active: 44.7 µM
66 | COC(=O)CN1C(=O)C(O)(CC(=O)c2ccc(C)cc2)c2cc(Br)ccc21 (stereo unspecified) | inactive: 11.8% | –
67 | CCc1cccc2c(C#N)cn(CC(=O)NCc3ccco3)c12 | – | inconclusive: 63.1 µM [inhibitor, partial curve, poor fit]
68 | CN(C)CC1CCCCC1OC(=O)/C=C/c1ccc(Cl)cc1Cl (stereo unspecified) | – | inconclusive: 70.8 µM [inhibitor, single point]
69 | COC(=O)Cc1ccc(OC(=O)CCS(=O)(=O)c2ccc(C)cc2)cc1 | – | inconclusive: 31.6 µM [inhibitor, single point]
70 | c1ccc2c3c([nH]c2c1)C(C1CCCCC1)N(Cc1ncc[nH]1)CC3 (stereo unspecified) | – | active: 44.7 µM
71 | COc1ccccc1-n1cnc2cc(NCc3ccccc3O)ccc21 | – | inconclusive: 50.1 µM [inhibitor, partial curve, poor fit]
